PubChem BioAssay AID1963576 (National Center for Advancing Translational Sciences (NCATS), 2024)
About 60 (0.1%) of roughly 46,000 compounds were called active. Not shown: some 3% with an inconclusive outcome. Calls follow the shape of the dose curve; as a rule, active = well fitted inhibition curve with a large enough effect; inconclusive = small, poorly fitted or top-dose-only effect; inactive = no such curve, though single readings can be large or run the other way. This is one part of the list.

Assay: Primary qHTS assay for Inhibitors of ovarian cancer metastasis using an organotypic tumor microenvironment (TME) model. Also: nearly all actives have a fitted effect of over 65% in size.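 As to activity change, negative = inhibition: plate controls were DMSO wells for no effect and tomatine positive control wells for full effect.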
Conditions: SKOV3ip1-GFP adhesion/invasion on 3D omental model, fluorescence; series mostly up to 45.8 µM; activity change, negative = inhibition: at the top concentration
Summary of the method: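 Adhesion/invasion was scored as fixed GFP-labeled SKOV3ip1 cell counts (488/509 nm), normalized to DMSO and tomatine controls. Cancer cells in serum-free medium, with four compound doses (0.36-46 umol/L), sat 2 hr at RT then 16 hr at 37 C on a 48 hr fibroblast/mesothelial/ECM culture.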

SMILES	activity change, negative = inhibition	outcome
CCC(=O)Nc1nnc(S(=O)(=O)N2CCCCCC2)s1	inactive: 4.06%	
Cn1cc(S(=O)(=O)N2CCCCC2)cc1C(=O)NCc1ccc(Cl)cc1		inactive
COc1ccc(N2CC(NC(=O)Cc3cccs3)CC2=O)cc1OC (stereo unspecified)	inactive: -7.5%	
Cc1cc(S(=O)(=O)Nc2ccc3[nH]c(=O)sc3c2)ccc1F		inactive
COc1ccc(-c2cn3c(n2)sc2cc(C(=O)N4CCCCC4)ccc23)cc1		inactive
CCCN(C(=O)c1cn(CC(C)C)c(=O)c2cc(OC)c(OC)cc12)c1cccc(C)c1		inactive
CCS(=O)(=O)N1CC(=O)N(c2ccc(C)c(C)c2)C(C)(C(=O)NC2CCCCCC2)C1 (stereo unspecified)	inactive: 9.25%	
C[C@H]1c2cccc(O)c2C(O)=C2C(=O)[C@]3(O)C(O)=C(C(N)=O)C(=O)[C@@H](N(C)C)[C@@H]3[C@@H](O)[C@@H]21	inactive: -1.11%	
Cc1ccc(NC(=O)COCc2cc(-c3cccs3)on2)cc1Cl	inactive: -9.21%	
CCCCNS(=O)(=O)c1ccc2nc(-c3cccnc3)cc(C(=O)NCCCOCC)c2c1	inactive: -16.9%	
CCCCOC(=O)c1ccc(NC(=O)/C(C#N)=C/c2ccc(C)o2)cc1		inactive
CCc1ccccc1N1C(=O)N(C)c2ccccc2S1(=O)=O	inactive: -18%	
COC(=O)c1ccc(NC(=O)CN(c2cccc(C(F)(F)F)c2)S(C)(=O)=O)cc1	inactive: 12.6%	
Cc1cccc(-n2c(SCC(=O)Nc3ccccc3C)nc3c(oc4ccccc43)c2=O)c1	inactive: 0.384%	
Cc1[nH]c2ccccc2c1C(=O)C(=O)NC1CC(=O)N(c2ccccc2)C1 (stereo unspecified)	inactive: -0.536%	
CCOc1ccccc1CNC(=O)CCn1cccn1	inactive: 4.61%	
CCOc1ccc(S(=O)(=O)N2CCN(c3ccc(C)cc3C)CC2)c2ccccc12		inactive
CCCN(CCC)CCCNC(=O)C1CCN(S(=O)(=O)c2cccc3nsnc23)CC1	inactive: 5.8%	
COc1cccc(CSc2nc(-c3ccccc3OC)nc3c2Cc2c(CO)cnc(C)c2O3)c1	inactive: -5.68%	
Cc1ccccc1C(C(=O)NC1CCCC1)N(C(=O)Cn1cnc2ccccc21)c1cccc(F)c1 (stereo unspecified)	inactive: -9.74%	
CSc1nn(Cc2ccc(F)cc2)c(N)c1S(=O)(=O)c1ccc(Cl)cc1	inactive: 7.64%	
CCN(C(=O)c1ccc2c(=O)n3c(nc2c1)CCCCC3)c1cc(C)ccc1C	inactive: -4.31%	
O=C1COc2ccc(-c3cc(-c4ccc(F)cc4)c4c(n3)-c3ccccc3OC4)cc2N1		inactive
Cc1ccc(-c2nc3cc(NC(=O)c4cc(Br)ccc4Cl)ccc3o2)cc1	inactive: 4.3%	

SMILES	activity change, negative = inhibition	outcome
CCOc1ccccc1C(=O)N1CCCCC1CCN1CCOCC1 (stereo unspecified)	inactive: 22.8%	
Cc1ccc(C)c(C(=O)CSc2nc3cc(C(=O)NC4CCCC4)ccc3c(=O)n2CC2CCCO2)c1 (stereo unspecified)		inactive
COCc1cc(C)n(CC(=O)Nc2cccc(C(C)=O)c2)c(=O)c1C#N		inactive
CCC(=O)N1CCc2cc(S(=O)(=O)NC(C(=O)NCCc3ccc(C)cc3)C(C)C)ccc21 (stereo unspecified)	inactive: -8.44%	
CCCOc1cccc(C2c3c(oc4cc(C)c(C)cc4c3=O)C(=O)N2CCCN2CCOCC2)c1 (stereo unspecified)	inactive: 7.77%	
CSc1cccc(NC(=O)CN(C)S(=O)(=O)c2ccc3c(c2)CCCN3C(C)=O)c1	inactive: -3.01%	
CC(C)c1nn2c(=O)cc(COC(=O)c3ccccc3Cl)nc2s1	inactive: 6.56%	
CCOc1cc2[nH]c(=O)n(CCCCCC(=O)NC(C)CC)c(=O)c2cc1OCC (stereo unspecified)	inactive: 0.615%	
COc1ccc(N2CCN(Cc3nc(-c4ccc(C)cc4)no3)CC2)cc1	inactive: 1.35%	
CC1CCN(S(=O)(=O)c2cn(CC(=O)Nc3ccc(F)cc3)c(=O)c3ccccc23)CC1	inactive: -4.62%	
Cc1cc(C)n2c(Nc3cccc(C(F)(F)F)c3)c(-c3ccsc3)nc2n1	inactive: -2.52%	
Cc1nnc(NC(=O)CSCc2cc(=O)c3ccc(C)c(C)c3[nH]2)s1		inactive
O=C(NCc1ccccc1Cl)C1CCN(c2ncnc3c2nc2n3CCCCC2)CC1		inactive
COc1ccc2nc3cc(Cl)ccc3c(Nc3cc(CN4CCCC4)c(O)c(CN4CCCC4)c3)c2n1	inactive: 1.66%	
COc1ccc(-c2csc(-c3c(N)c(C(=O)c4ccccc4)n4ccccc34)n2)cc1		inactive
CCC(Cc1ccccc1)NC(=O)Cn1ncc2c3ccccc3n(Cc3ccc(F)cc3)c2c1=O (stereo unspecified)	inactive: -22.3%	
CCn1cc2nc(SCc3cccc(F)c3)n(CCc3ccccc3)c(=O)c2n1		inactive
O=C(O)CCn1ccc2cc(S(=O)(=O)N3CCCCC3)ccc21	inactive: -7.08%	
CCOc1ccccc1NC(=O)c1nnn(CC(=O)Nc2ccccc2CC)c1N	inactive: -4.08%	
COc1ccc(NC(=O)c2[nH]nc3c2CSc2ccccc2-3)c(OC)c1	inactive: 7.45%	
O=C(Cn1nnnc1-c1ccccc1F)Nc1ccc(F)c(F)c1	inactive: 19.5%	
O=C(CN1CCN(c2ccc(Cl)cc2)CC1)Nc1ccc(F)c(F)c1	inactive: -5.88%	
CCC(=O)N1c2ccccc2CC1C(=O)NCCc1ccc(Cl)cc1 (stereo unspecified)	inactive: 7.57%	
Cc1cc(C)cc(-n2ccnc2SCC(=O)Nc2ccc(C)c(Cl)c2)c1	inactive: -9.44%	

SMILES	activity change, negative = inhibition	outcome
Cc1ccc2oc(=O)c3cc(C(=O)Nc4cccc(C#N)c4)sc3c2c1	inactive: -12%	
CC(C)c1ccc(S(=O)(=O)c2cnc(SCC(=O)Nc3ccc(F)cc3F)nc2N)cc1	inactive: -6.71%	
Cc1ccc(-n2nc3c(N4CCC(C(=O)NCCC(C)C)CC4)nnc(C)c3c2C)cc1	inactive: 5.82%	
COc1ccc2c(c1)sc1ncc(C(=O)NCc3cccc(Cl)c3)c(=O)n12	inactive: 13.9%	
COc1cc(C)ccc1OCCn1c(-c2ccc(Cl)cc2)nc2ccccc2c1=O	inactive: -14.3%	
O=C(CC1N=C2c3ccccc3N=C(SCc3ccccc3F)N2C1=O)NCc1ccc2c(c1)OCO2 (stereo unspecified)	inactive: -4.16%	
COc1ccc(Cl)cc1NC(=O)CN(c1cccc(C)c1C)S(=O)(=O)c1ccccc1		inactive
CCOc1ccc(C(c2c(O)cc(C)n(CCOC)c2=O)N2CCC(C)CC2)cc1 (stereo unspecified)	inactive: -2.37%	
O=C(NCc1ccc(Cl)cc1)c1cnc2sc(N3CCCC3)nn2c1=O	inactive: -3.29%	
COc1ccc(C2c3c(n(C)c4ccccc34)C(=O)N2CC(=O)Nc2ccccc2F)cc1 (stereo unspecified)	inactive: -0.41%	
COc1ccc(CCNC(=O)c2ccc3c(c2)N(Cc2cccc(Cl)c2)C(=O)CS3)cc1OC	inactive: -13.5%	
Cc1ccc2scc(N3CCN(c4ccc(F)cc4)CC3)c(=O)c2c1	inactive: -5.72%	
O=C1c2[nH]nc(-c3ccc(Br)cc3)c2C(c2cccc(O)c2)N1c1ccc(Cl)cc1 (stereo unspecified)	inactive: -7.04%	
COc1ccc(NC(=O)c2sc3nc4n(c(=O)c3c2C)CCC4)cc1Cl	inactive: -7.19%	
COc1ccc(-n2c3c(cc(-c4nc(-c5ccc(Cl)cc5)cs4)c2=O)C(=O)CC(C)(C)C3)cc1	inactive: -4.78%	
O=C(Cc1ccc(NC(=O)N2CCSc3ncccc32)cc1)NCCc1ccccc1	inactive: -4.34%	
CCc1ccc(CNC(=O)c2cc(-c3ccc(Cl)s3)nc3ccccc23)cc1	inactive: -8.37%	
Cc1ccc(N(C)S(=O)(=O)c2nnc(NC(=O)C3CCCCC3)s2)cc1		inactive
CCOc1ccc(NC(=O)Cn2c(=O)oc3cc(S(=O)(=O)N4CCCCCC4)ccc32)cc1	inactive: -2.83%	
Cc1ccc(CCNC(=O)c2ccc(CSCc3ccccc3Cl)o2)cc1	inactive: 31.9%	
Cc1ccccc1NC(=O)c1c(NC(=O)Cc2ccccc2)sc2c1CCC2		inactive
O=C(NCCOCCn1c(=O)oc2ccccc21)Nc1ccc(Cl)cc1		inactive
CN(C)S(=O)(=O)n1cc(/C=C(\NC(=O)c2ccccc2)C(=O)NCCCn2ccnc2)c2ccccc21		inactive
CCOc1ccc(CNC(=O)c2ccc3c(c2)c(C)c(C)n3Cc2ccc(Cl)cc2)cc1	inactive: -4.15%	

SMILES	activity change, negative = inhibition	outcome
CCNc1ccc(-c2nc(-c3ccco3)no2)cc1[N+](=O)[O-]	inactive: -8.85%	
CCOC(=O)N1CCc2c(sc3c2c(=O)n(-c2ccc(CC)cc2)c(=O)n3CC(=O)Nc2ccc(C)cc2)C1	inactive: -3.01%	
Cc1ccc2oc(=O)n(CCCOc3ccc(Cl)cc3)c2c1	inactive: -6.91%	
COc1ccc(N2CC(NC(=O)CCc3ccccc3)CC2=O)cc1OC (stereo unspecified)		inactive
Cc1cc(C)c(NC(=O)c2cc(S(=O)(=O)N3CCN(c4ccccc4F)CC3)ccc2F)c(C)c1	inactive: 0.247%	
COC(=O)c1scc(-c2ccc(C)cc2)c1S(=O)(=O)N1CCN(c2ccc(OC)cc2)CC1		inactive
O=C(Cn1c(=O)n(CC2CCCO2)c(=O)c2ccccc21)Nc1cccc(Cl)c1 (stereo unspecified)		inactive
COc1cc(OC)c(Nc2nc3ccccc3nc2-n2nc(C)cc2C)cc1Cl	inactive: 0.42%	
CCOC(=O)c1ccccc1NC(=O)N1CCC(N2CCN(Cc3ccccc3)C(=O)C2=O)CC1	inactive: -0.714%	
C[C@H]1[C@H](O)O[C@@H]2O[C@@]3(C)CC[C@@H]4[C@H](C)CC[C@@H]1[C@@]24OO3	inactive: -18.1%	
Cc1ccc(-c2nc3nc(C)cc(Nc4ccccc4O)n3n2)cc1	inactive: 8.01%	
CCS(=O)(=O)N1CCc2cc(C(=O)NCc3ccccc3)ccc21		inactive
CCCC1=Nc2cc(C(=O)NCCc3ccc(OC)cc3OC)ccc2Sc2ccccc21	inactive: 14.9%	
CSc1ncc(C(=O)Nc2ccc(F)cc2F)c(-c2ccccc2)n1	inactive: 0.789%	
Cc1ccc2oc(-c3cc(NC(=O)c4ccco4)ccc3Cl)nc2c1	inactive: -9.16%	
Cc1ccc(NC(=O)CN2C(=O)CCn3nc(-c4cccn4C)cc32)cc1	inactive: 9.54%	
COCCCNc1nc2c(S(=O)(=O)c3ccc(C)c(C)c3)nnn2c2ccc(Cl)cc12	inactive: -19.6%	
CCOc1ccc(OCC)c(NC(=O)CCC(=O)N2CCOc3ccccc32)c1	inactive: 7.59%	
COc1cc(OC)c(NS(=O)(=O)c2cc(-c3cnc(C)o3)ccc2OC)cc1Cl		inactive
CNC(=O)COc1ccc(NC(=O)CCn2nc(-c3ccc(C)cc3)c3ccccc3c2=O)cc1	inactive: -2.98%	
O=C(Nc1nc2nc(-c3ccccc3)cc(=O)n2[nH]1)c1ccc(Cl)cc1	inactive: 5.98%	
CCC(C)OC(=O)/C(C#N)=C\c1ccc(-c2ccccc2Cl)o1 (stereo unspecified)	inactive: -6.59%	
O=C(CSCc1nc2cccnc2n1C1CCCCC1)NCc1cccc(Cl)c1		inactive
COc1ccc(-n2nc(C(=O)N3CCN(c4cccc(C)c4C)CC3)c3c4ccccc4n(C)c3c2=O)cc1	inactive: -10.5%	
